Source: the supplement of paper PMC3334620
Over roughly 33,000 sequences, “E-score (-0.5 to 0.5)” has its median near -0.053; the highest 2% begin near 0.37. Some of the results follow.

Biological target: Hap1 (UniProt P0CE41)
Test: PBM E-score (8-mer binding enrichment) (E-score (-0.5 to 0.5)); higher = stronger / more preferred TF binding; most listed sequences are background and not binding sites
Conditions: protein concentration: 200 nM; construct: GST-DNA-binding domain
Outline: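 The E-score, a modified Wilcoxon-Mann-Whitney statistic, was computed by the Universal PBM Analysis Suite for every ungapped eight-base word pooled with its reverse complement. Scans behind it were normalised with masliner after bound GST-tagged yeast transcription factors were detected with fluorescent anti-GST. The proteins, at about 100-200 nM, had been applied to universal all-10-mer Agilent arrays made double-stranded by primer extension.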

Sequence of UniProt P0CE41 (P0CE41 whole entry): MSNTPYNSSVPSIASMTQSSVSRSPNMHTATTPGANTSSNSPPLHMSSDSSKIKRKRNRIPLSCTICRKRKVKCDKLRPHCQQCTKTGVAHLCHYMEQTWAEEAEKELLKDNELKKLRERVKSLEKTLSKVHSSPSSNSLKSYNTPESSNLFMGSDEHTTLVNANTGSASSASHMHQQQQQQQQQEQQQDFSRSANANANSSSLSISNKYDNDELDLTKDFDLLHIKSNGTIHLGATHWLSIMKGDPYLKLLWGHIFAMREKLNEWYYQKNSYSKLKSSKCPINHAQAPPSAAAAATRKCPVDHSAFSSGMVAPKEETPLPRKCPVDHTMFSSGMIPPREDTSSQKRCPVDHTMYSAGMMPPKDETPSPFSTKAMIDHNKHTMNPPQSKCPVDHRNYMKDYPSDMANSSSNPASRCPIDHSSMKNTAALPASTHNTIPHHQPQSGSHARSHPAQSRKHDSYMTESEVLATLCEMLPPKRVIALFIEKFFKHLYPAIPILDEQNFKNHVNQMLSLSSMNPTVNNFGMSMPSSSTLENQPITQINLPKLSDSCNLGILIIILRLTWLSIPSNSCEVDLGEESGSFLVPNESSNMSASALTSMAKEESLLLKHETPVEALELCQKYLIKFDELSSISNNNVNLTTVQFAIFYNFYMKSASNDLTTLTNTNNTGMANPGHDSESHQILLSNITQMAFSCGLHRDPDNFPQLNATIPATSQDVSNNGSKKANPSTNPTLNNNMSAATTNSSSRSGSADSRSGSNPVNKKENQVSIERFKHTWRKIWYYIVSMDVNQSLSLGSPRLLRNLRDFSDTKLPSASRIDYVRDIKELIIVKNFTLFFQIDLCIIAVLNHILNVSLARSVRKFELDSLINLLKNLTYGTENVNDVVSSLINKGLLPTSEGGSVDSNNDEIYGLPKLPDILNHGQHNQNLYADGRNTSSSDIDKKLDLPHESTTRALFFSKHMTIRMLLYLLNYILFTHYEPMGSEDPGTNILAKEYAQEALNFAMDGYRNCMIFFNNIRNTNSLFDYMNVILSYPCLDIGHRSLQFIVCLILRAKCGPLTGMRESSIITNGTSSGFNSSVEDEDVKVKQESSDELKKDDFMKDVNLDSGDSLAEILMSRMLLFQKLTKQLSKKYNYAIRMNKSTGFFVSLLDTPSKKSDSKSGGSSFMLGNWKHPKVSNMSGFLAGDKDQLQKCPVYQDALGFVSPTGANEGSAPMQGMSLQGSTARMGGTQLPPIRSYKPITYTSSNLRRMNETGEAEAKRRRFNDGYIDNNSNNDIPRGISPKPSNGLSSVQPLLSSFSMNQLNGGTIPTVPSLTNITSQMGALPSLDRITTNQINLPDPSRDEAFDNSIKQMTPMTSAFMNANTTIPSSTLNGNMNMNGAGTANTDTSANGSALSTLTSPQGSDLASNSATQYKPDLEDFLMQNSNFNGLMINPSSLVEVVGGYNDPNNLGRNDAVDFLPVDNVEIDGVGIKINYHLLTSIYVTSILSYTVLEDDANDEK

Compared with CGGTGTTC, CCATGCTC is lower in “PBM E-score” value: 0.235 for the first, -0.219 for the second.

First: CAAAAGAA
Second: CTCTGTGC
The “PBM E-score” value of the first is higher: -0.0306 for the first, -0.198 for the second.

Going from CAAGATTA to CTTGTCTC, the “PBM E-score” value falls from -0.0378 to -0.073.

Compared with AAAGCCCC, CAAAGCAG is lower in “PBM E-score” value: 0.106 for the first, -0.131 for the second.

First: AGGGGCGC
Second: AAGGAGCC
The “PBM E-score” value of the first is higher: 0.00991 for the first, -0.142 for the second.

Going from AAACTTTC to ACAGGCGT, the “PBM E-score” value falls from 0.0788 to -0.0667.

Compared with ATCTTTAA, ACTTATAT is higher in “PBM E-score” value: -0.0391 for the first, 0.0307 for the second.

Compared with CAATCCCA, ATACATGG is lower in “PBM E-score” value: -0.0601 for the first, -0.134 for the second.

Going from CGCTTGAA to ATCAGAGG, the “PBM E-score” value falls from 0.184 to -0.147.

Going from ATTAATGA to ACGTGAGG, the “PBM E-score” value rises from 0.00222 to 0.0362.

Compared with AAACAATC, ACCAGTCG is higher in “PBM E-score” value: -0.152 for the first, 0.0172 for the second.

Going from AATTTACG to AAGTCGGC, the “PBM E-score” value falls from 0.253 to 0.192.

First: CAGAGAAA
Second: ATCGTGTC
The “PBM E-score” value of the first is lower: -0.203 for the first, 0.224 for the second.

Compared with AGGCGAAT, GGTACGAA is lower in “PBM E-score” value: -0.0348 for the first, -0.0434 for the second.

Going from GCTCACAC to GAGATGCA, the “PBM E-score” value rises from -0.206 to -0.157.

Going from ATGCTGGG to ACTCTAGA, the “PBM E-score” value falls from -0.113 to -0.191.

Compared with ATCTTGGA, GCGGCCGC is higher in “PBM E-score” value: -0.14 for the first, 0.289 for the second.

First: ACGAAGTC
Second: ACACTCAT
The “PBM E-score” value of the first is lower: -0.183 for the first, -0.164 for the second.

First: CCCTAATC
Second: ACGAAAGG
The “PBM E-score” value of the first is higher: 0.077 for the first, -0.0717 for the second.

Going from CATGCCCA to ATAAACGA, the “PBM E-score” value rises from -0.269 to 0.0388.

Going from CAACGACG to AGCGTGTG, the “PBM E-score” value falls from -0.0858 to -0.0952.

First: CTGAATCA
Second: GCATGGAC
The “PBM E-score” value of the first is lower: -0.308 for the first, 0.104 for the second.

First: CAGACCGG
Second: CGAGACAC
The “PBM E-score” value of the first is higher: 0.278 for the first, 0.00054 for the second.

Going from GTTGTTTA to AGGCCAAC, the “PBM E-score” value rises from -0.146 to -0.0286.

Compared with AGAGGCCG, ATATAAAA is higher in “PBM E-score” value: -0.0391 for the first, 0.0781 for the second.

First: CCGGCACA
Second: ACTTATCT
The “PBM E-score” value of the first is higher: 0.262 for the first, -0.135 for the second.

Going from ACGGTTTA to ATTGATGC, the “PBM E-score” value rises from -0.0729 to -0.0271.

Going from GCATAACA to CGATCGAG, the “PBM E-score” value rises from -0.266 to 0.172.

First: CACGAGAA
Second: GCGGTTAA
The “PBM E-score” value of the first is lower: -0.19 for the first, 0.143 for the second.

First: GACCTAGC
Second: CTCGTGAA
The “PBM E-score” value of the first is higher: -0.0274 for the first, -0.261 for the second.

Going from CCATCGGA to GCTTTTAC, the “PBM E-score” value falls from 0.342 to 0.14.

Going from GTGAACGA to AACGTAAA, the “PBM E-score” value rises from -0.202 to -0.0453.

First: ATGATGTG
Second: ATAGGTCC
The “PBM E-score” value of the first is lower: -0.149 for the first, 0.188 for the second.

Compared with AGATTTTC, CGTCAGAC is higher in “PBM E-score” value: -0.0985 for the first, -0.032 for the second.

First: CGTCCGAA
Second: GTCTTTTA
The “PBM E-score” value of the first is higher: 0.394 for the first, -0.127 for the second.

First: AACGGCGC
Second: CACGGCAG
The “PBM E-score” value of the first is higher: 0.0607 for the first, -0.062 for the second.

Compared with ACGCGTCT, GACGTCAA is lower in “PBM E-score” value: -0.171 for the first, -0.252 for the second.

Compared with GCAAGTGC, AACCCTAA is higher in “PBM E-score” value: -0.283 for the first, 0.0217 for the second.

Compared with ATAGAAGG, AGCCCCTG is lower in “PBM E-score” value: -0.0396 for the first, -0.269 for the second.

Going from AGTGCCCG to CTGCGCTC, the “PBM E-score” value falls from 0.195 to -0.211.

First: AAAGCCGT
Second: CTGAATGA
The “PBM E-score” value of the first is higher: 0.322 for the first, -0.058 for the second.

First: GCACGGGC
Second: ATCTTTTA
The “PBM E-score” value of the first is higher: 0.0511 for the first, -0.068 for the second.

First: AACCGTTG
Second: CGTGGACA
The “PBM E-score” value of the first is lower: -0.012 for the first, 0.0235 for the second.

Going from ACGGTCGA to CGCATGCG, the “PBM E-score” value falls from 0.167 to -0.0985.

First: ACAGGGCC
Second: CTACAGCC
The “PBM E-score” value of the first is higher: 0.115 for the first, -0.0654 for the second.

Compared with CTAGGAAC, AAAACTGC is higher in “PBM E-score” value: -0.184 for the first, -0.181 for the second.

Going from GGCCGAAA to CTCCTTGC, the “PBM E-score” value falls from 0.405 to -0.281.

Going from AACGAAGA to CCTATGGC, the “PBM E-score” value rises from -0.13 to -0.0292.

First: AAACGGTC
Second: AGAATGGG
The “PBM E-score” value of the first is higher: 0.114 for the first, -0.113 for the second.

First: GCCGCGCA
Second: ACTCAGGA
The “PBM E-score” value of the first is higher: 0.0598 for the first, -0.123 for the second.

Going from AAGATCGG to GCGGTAAC, the “PBM E-score” value falls from 0.304 to 0.256.

Compared with AAAACGTG, GGAAAAGA is higher in “PBM E-score” value: -0.174 for the first, -0.0335 for the second.

Going from ATTACGGA to AGGATCTA, the “PBM E-score” value falls from 0.356 to -0.253.

First: GGCCGCAC
Second: GATGTAAA
The “PBM E-score” value of the first is higher: 0.181 for the first, 0.051 for the second.

Compared with TCGTAACA, AATCCCGT is higher in “PBM E-score” value: -0.0597 for the first, 0.372 for the second.

Compared with TATGATCA, AGAGGTAA is higher in “PBM E-score” value: -0.25 for the first, -0.00854 for the second.

First: GATCCGAA
Second: ATGGAACA
The “PBM E-score” value of the first is higher: 0.379 for the first, -0.24 for the second.

Compared with AGGGAAAC, CCCTTAGC is higher in “PBM E-score” value: -0.161 for the first, 0.113 for the second.

Going from CGTTAAAC to CACTAAAA, the “PBM E-score” value falls from 0.145 to -0.0313.

Compared with CCTACAGG, TCTTTCCA is higher in “PBM E-score” value: -0.128 for the first, -0.0363 for the second.

Compared with CCAGCCCG, ATAACAAG is lower in “PBM E-score” value: 0.133 for the first, -0.0403 for the second.

Compared with AAAGGTAA, CGATGGAC is higher in “PBM E-score” value: -0.168 for the first, 0.0177 for the second.

Going from AATTCAAC to CTCCGGAA, the “PBM E-score” value rises from 0.0932 to 0.422.

First: GACTACGC
Second: ACTATCCG
The “PBM E-score” value of the first is lower: -0.0641 for the first, 0.268 for the second.

First: ATATTTGG
Second: CTCACTGA
The “PBM E-score” value of the first is higher: -0.0588 for the first, -0.285 for the second.

First: GGGCAGAC
Second: CACCGGCC
The “PBM E-score” value of the first is lower: 0.0312 for the first, 0.313 for the second.

First: GGCAGTGA
Second: AAAAGTTA
The “PBM E-score” value of the first is lower: -0.24 for the first, -0.115 for the second.

First: ACTTTCGA
Second: GCGTACGC
The “PBM E-score” value of the first is lower: -0.0578 for the first, 0.0589 for the second.

Compared with AATCGGCA, CAAAAGAG is lower in “PBM E-score” value: 0.224 for the first, -0.185 for the second.

Compared with ATTATGAG, ATCCACAG is higher in “PBM E-score” value: -0.044 for the first, -0.0282 for the second.

Going from AGTAGGGG to AGTCTTCA, the “PBM E-score” value falls from -0.0847 to -0.188.

First: AAAGTTGT
Second: AACGAGGC
The “PBM E-score” value of the first is higher: 0.0574 for the first, -0.0571 for the second.

Going from GGCTGTGA to GAGCAACC, the “PBM E-score” value rises from -0.225 to -0.0422.

Compared with ATTAGACG, ATTGAATA is lower in “PBM E-score” value: 0.0149 for the first, -0.0697 for the second.

Compared with CGAACGGC, GCATGACA is lower in “PBM E-score” value: 0.163 for the first, -0.341 for the second.

First: CTTCGGCC
Second: ATAGACAT
The “PBM E-score” value of the first is higher: 0.309 for the first, -0.193 for the second.

Compared with GGAGACCC, GATTGCCA is lower in “PBM E-score” value: 0.0798 for the first, -0.00798 for the second.

Compared with AACCAAAT, CTGCGTTA is lower in “PBM E-score” value: 0.0673 for the first, 0.0146 for the second.

First: TAAACCAA
Second: ATTTACTC
The “PBM E-score” value of the first is lower: -0.17 for the first, -0.0227 for the second.

Going from AGCGTAAT to CGGCTGCC, the “PBM E-score” value rises from -0.0155 to 0.162.

First: AGGATGTG
Second: ACGGGCCG
The “PBM E-score” value of the first is lower: -0.109 for the first, 0.29 for the second.

Compared with TCCAGTCA, GATTTAGC is higher in “PBM E-score” value: -0.0585 for the first, 0.18 for the second.

First: CCAACGGG
Second: CGGTATCA
The “PBM E-score” value of the first is higher: 0.228 for the first, 0.22 for the second.

Compared with GACGTCCC, AGAACATG is lower in “PBM E-score” value: 0.0301 for the first, -0.0473 for the second.

Compared with AGGTCGGA, GCCCTTCA is lower in “PBM E-score” value: 0.321 for the first, -0.165 for the second.

First: TGCTTAAA
Second: CATGTATC
The “PBM E-score” value of the first is lower: -0.0635 for the first, 0.00111 for the second.
